SMILES strings stand for the structures. Screen size: about 310,000 compounds; about 14,000 (4.5%) showed an effect of 50% or more. The effect is printed as a negative number. The list shows a part of the results.
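Also: peak tail current of the secondary pulse compared with the same well before compound.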

The experiment deals with human ether-à-go-go-related gene (hERG) potassium channel (human, UniProt Q12809). Kind of experiment: primary screen, population patch clamp on CHO cells stably expressing hERG.
Chain of human ether-à-go-go-related gene (hERG) potassium channel (Q12809 whole entry, looked up): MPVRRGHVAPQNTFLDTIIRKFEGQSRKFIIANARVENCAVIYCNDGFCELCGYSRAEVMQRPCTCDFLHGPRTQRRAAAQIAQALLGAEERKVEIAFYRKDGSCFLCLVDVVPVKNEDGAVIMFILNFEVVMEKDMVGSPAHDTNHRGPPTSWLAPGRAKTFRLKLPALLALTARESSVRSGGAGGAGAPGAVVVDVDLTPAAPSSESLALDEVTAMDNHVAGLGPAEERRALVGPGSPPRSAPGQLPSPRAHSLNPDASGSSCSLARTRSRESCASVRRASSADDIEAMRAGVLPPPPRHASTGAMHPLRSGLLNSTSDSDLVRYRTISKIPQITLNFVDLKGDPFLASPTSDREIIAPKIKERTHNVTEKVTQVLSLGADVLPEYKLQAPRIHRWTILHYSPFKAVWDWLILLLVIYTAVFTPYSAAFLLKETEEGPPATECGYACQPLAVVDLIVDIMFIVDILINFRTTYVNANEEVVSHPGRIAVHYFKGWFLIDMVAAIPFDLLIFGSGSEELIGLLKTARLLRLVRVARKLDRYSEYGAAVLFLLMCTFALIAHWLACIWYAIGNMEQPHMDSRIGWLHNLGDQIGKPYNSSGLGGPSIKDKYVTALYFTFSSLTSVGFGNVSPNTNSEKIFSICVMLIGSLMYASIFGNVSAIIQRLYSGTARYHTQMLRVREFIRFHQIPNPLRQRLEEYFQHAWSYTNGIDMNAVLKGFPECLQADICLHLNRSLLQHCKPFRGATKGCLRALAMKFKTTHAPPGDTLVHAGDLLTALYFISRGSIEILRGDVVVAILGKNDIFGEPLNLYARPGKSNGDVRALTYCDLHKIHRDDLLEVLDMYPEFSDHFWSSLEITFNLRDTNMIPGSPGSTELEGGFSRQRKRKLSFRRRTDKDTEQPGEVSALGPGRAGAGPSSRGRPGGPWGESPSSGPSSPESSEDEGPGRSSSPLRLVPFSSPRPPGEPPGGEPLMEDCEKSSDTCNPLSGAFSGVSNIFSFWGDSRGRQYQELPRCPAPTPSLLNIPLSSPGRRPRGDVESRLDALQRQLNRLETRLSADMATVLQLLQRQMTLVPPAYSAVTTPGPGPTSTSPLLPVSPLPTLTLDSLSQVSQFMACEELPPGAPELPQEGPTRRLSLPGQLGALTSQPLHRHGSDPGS
Turning to `CCC(=O)NCCc1cc2ccc(C)cc2[nH]c1=O`, the “hERG current change (%, negative = inhibition) at 10uM” value worked out at 1.71%.

Turning to `Nc1cccc2c1C(=O)N(C(=O)c1ccc(Cl)c(S(=O)(=O)N3CCCCCC3)c1)C2=O`, the “hERG current change (%, negative = inhibition) at 10uM” value is recorded as -6.44%. In the case of `COc1ccc(S(N)(=O)=O)cc1C(=O)NNC(=O)CN(C)S(=O)(=O)c1ccc(Cl)cc1` it was -3.64%; in that of `O=C(COc1ccc(S(=O)(=O)N2CCc3ccccc32)cc1Cl)NCc1ccccn1`, -25.5%.

On to `O=C(c1cccc([N+](=O)[O-])c1)N1CCN(C(=O)c2ccco2)CC1`, for which the “hERG current change (%, negative = inhibition) at 10uM” value is -10.8%.

On to `CS(=O)(=O)N(CC(=O)NCCSc1ccc(Cl)cc1)c1ccc2c(c1)OCO2`, for which the “hERG current change (%, negative = inhibition) at 10uM” value was -0.207%. In the case of `Cc1ccc(CNC(=O)CCn2cc(-c3ccc(F)cc3)nc2-c2ccncc2)cc1` it was -50.1%. In the case of `O=C(O)CC(SCC(=O)NC1CCCc2ccccc21)C(=O)O` (stereo not shown) it was 10.4%; in that of `CCCc1nc2ccccc2c(=O)n1NC(=O)c1c(O)c2cccc3c2n(c1=O)CCC3`, -5.34%.

In the case of `CC(C)c1nn(-c2cc(C(F)(F)F)ccn2)c(=O)o1`, the “hERG current change (%, negative = inhibition) at 10uM” value is reported as 4.34%. For `COc1ccc(NS(=O)(=O)c2ccc(/C=C/C(=O)O)cc2)cc1S(=O)(=O)N1CCOCC1` the value was 20.6%; for `COC(=O)[C@H](Cc1ccccc1)NC(=O)C1(OC(C)=O)CC(OC(C)=O)C(OC(C)=O)C(OC(C)=O)C1` (stereo partly shown), 24.6%; for `O=C(O)c1cc(N/N=C/c2c(O)ccc3ccccc23)ccc1Cl`, 9.42%. For `Cc1cc(C)nc(N2CCCC(C(=O)Nc3nnc(C)s3)C2)n1` (stereo not shown) the value was -6.91%; for `Cn1nc([N+](=O)[O-])c2c(-c3nc4ccccc4s3)c(N)n(C3CCCCC3)c2c1=O`, 6.66%.

With `CC(C)Oc1ccc(Cc2cnc(N)nc2N)cc1`, the “hERG current change (%, negative = inhibition) at 10uM” value is listed as -13%. For `Cc1csc2nc(O)c(C(=O)NC3CCCCC3)c(=O)n12`, the “hERG current change (%, negative = inhibition) at 10uM” value was -8.09%. Consider `COc1ccc2nc(SC(C(=O)c3ccccc3)c3ccccc3)nc(C)c2c1` (stereo not shown), for which the “hERG current change (%, negative = inhibition) at 10uM” value is reported as 24.4%. As for `Cc1ccc(NC(=O)Cc2noc3ccccc23)nc1`, the “hERG current change (%, negative = inhibition) at 10uM” value is on record as -8.24%. In the case of `CC(C)N=C(NC#N)SCc1ccccc1` it was -33.2%; in that of `COc1cc(Cn2nnc3ccccc32)ccc1O`, 4.91%; in that of `CCCN1CCC(=O)N([C@H](COc2ccccc2)c2ccccc2)CC1`, -78.2%. For `Cn1cnc2c(N3CCCCC3)nccc21` the value was 4.92%. In the case of `Cc1ccccc1OCCSCc1nc2ccccc2[nH]1` it was -19.5%; in that of `Cc1c(C(=O)NCCN2C(=O)S/C(=C\c3cccs3)C2=O)cccc1[N+](=O)[O-]`, -14.1%. As to `COc1ccc(OCCCCN2CCC(C)CC2)cc1.O=C(O)C(=O)O`, the “hERG current change (%, negative = inhibition) at 10uM” value is recorded as -29%. For `O=C(Cc1ccccc1)Nc1ccccc1C(=O)N1CCN(c2ccccc2)CC1` the value was 14.8%; for `COCCNC(=O)c1onc(CSc2ccc(C)c(C)c2)c1C(=O)O`, -15.2%; for `CC(=O)N1CCc2c(sc(NC(=O)C3CCCCC3)c2C(N)=O)C1`, -10.4%. For `CC(C)c1ccccc1NC(=S)NCc1ccccc1F` the value was 19.9%. On to `Cn1c(=O)c(C(=O)NCCc2ccccc2)c(O)c2ccccc21`, for which the “hERG current change (%, negative = inhibition) at 10uM” value turned out to be 20.1%.

Turning to `Nc1nc2c([N+](=O)[O-])cccc2s1`, the “hERG current change (%, negative = inhibition) at 10uM” value is 31.8%. In the case of `CCCOc1ccc(N2CC(C(=O)Nc3ccc(N4CCOCC4)cc3)CC2=O)cc1` (stereo not shown) it was 36%; in that of `Cc1cccc(C(=O)O)c1NC(=O)Cc1cccc2ccccc12`, 14.3%.

For `O=c1[nH]cc(S(=O)(=O)N2CCN(c3cccc(C(F)(F)F)c3)CC2)c(=O)[nH]1`, the “hERG current change (%, negative = inhibition) at 10uM” value is reported as 17.6%. As for `CC(=C\c1ccccc1)/C=C1/SC(=O)N(CCCC(=O)Nc2ccc(C(=O)O)cc2)C1=O`, the “hERG current change (%, negative = inhibition) at 10uM” value is listed as 20.4%. Consider `COc1ccc(CN(C)CC(=O)Nc2ccccc2-c2ccccc2)c(OC)c1`, for which the “hERG current change (%, negative = inhibition) at 10uM” value worked out at 8.4%. Regarding `COc1ccc2nc(NC(=O)/C=C/c3ccc4c(c3)OCO4)sc2c1`, the “hERG current change (%, negative = inhibition) at 10uM” value amounted to 4.89%. `C=CCc1cccc(C=Nc2cccn3cc(-c4ccccc4)nc23)c1O`: the “hERG current change (%, negative = inhibition) at 10uM” value was 17.6%. In the case of `CNC(=S)NNC(=O)c1cccn(Cc2ccc(Cl)cc2Cl)c1=O` it was -19.5%; in that of `CN(CC(=O)Nc1ccc(F)cc1)C(=O)CSc1ccc2c(c1)OCCO2`, -14.6%.

For `O=C1CC(=O)N(c2cccc(Br)c2)C(=O)N1`, the “hERG current change (%, negative = inhibition) at 10uM” value turned out to be 2.88%.

With `CCN(CC)CCCNc1nc2cc(OC)c(OC)cc2c2nc(-c3ccccc3)nn12`, the “hERG current change (%, negative = inhibition) at 10uM” value is -7.77%. In the case of `Cc1ccc(S(=O)(=O)N2CCOCC2)cc1NC(=O)C1=NN(c2ccccc2)C(=O)CC1` it was -18%; in that of `CCOc1cc(/C=N/Nc2nc(N3CCCC3)nc(N3CCCC3)n2)ccc1O`, -61.4%; in that of `O=c1c2ccccc2[nH]c(=S)n1CCN1CCN(Cc2ccccc2)CC1`, -19.8%. In the case of `O=S(=O)(/C=C/c1ccccc1)NCc1ccccc1Cl` it was -8.17%; in that of `Cc1c(CCOC(=O)c2cc([N+](=O)[O-])ccc2Cl)sc[n+]1CCCCS(=O)(=O)[O-]`, 25.3%; in that of `CCC(=O)Nc1ccc(Cl)c(NC(=S)NC(=O)COc2ccccc2)c1`, 10.2%. In the case of `NC(=O)c1cc2ccncc2c2ccccc12`, the “hERG current change (%, negative = inhibition) at 10uM” value came out at 14.7%.

Turning to `CC(C)Nc1nc(Cl)nc(N(C#N)CN2C(=O)c3ccccc3C2=O)n1`, the “hERG current change (%, negative = inhibition) at 10uM” value is -7.58%. Turning to `COc1ccccc1NS(=O)(=O)c1ccc(C(=O)NCC2(N(C)C)CCCCC2)cc1`, the “hERG current change (%, negative = inhibition) at 10uM” value amounted to 3.78%. In the case of `CCN1CCC2(CC1)N=C(c1ccc(F)cc1)C(=S)N2` it was -42.8%; in that of `CCN(CC(=O)Nc1c(F)cccc1F)C(=O)c1cccc(S(=O)(=O)N(C)c2ccccc2)c1`, -15.5%; in that of `COC(=O)CC1=NN(c2ccc(OC)cc2)C(=O)C1`, 12.5%.

These data come from publication PMC4336329 (PLoS ONE, 2015).
